Source: paper PMC9312491
No constants are given. Whether binding was seen depends on the method and setting. Binding seen in cells or lysates may run through a third protein. Some binding calls cover weakened binding; strength is not graded here. Tags and fused reporters may be left off the sequences shown.

The chains behind the UniProt entries cited, without tags or fusion partners.
UniProt P0DMV8: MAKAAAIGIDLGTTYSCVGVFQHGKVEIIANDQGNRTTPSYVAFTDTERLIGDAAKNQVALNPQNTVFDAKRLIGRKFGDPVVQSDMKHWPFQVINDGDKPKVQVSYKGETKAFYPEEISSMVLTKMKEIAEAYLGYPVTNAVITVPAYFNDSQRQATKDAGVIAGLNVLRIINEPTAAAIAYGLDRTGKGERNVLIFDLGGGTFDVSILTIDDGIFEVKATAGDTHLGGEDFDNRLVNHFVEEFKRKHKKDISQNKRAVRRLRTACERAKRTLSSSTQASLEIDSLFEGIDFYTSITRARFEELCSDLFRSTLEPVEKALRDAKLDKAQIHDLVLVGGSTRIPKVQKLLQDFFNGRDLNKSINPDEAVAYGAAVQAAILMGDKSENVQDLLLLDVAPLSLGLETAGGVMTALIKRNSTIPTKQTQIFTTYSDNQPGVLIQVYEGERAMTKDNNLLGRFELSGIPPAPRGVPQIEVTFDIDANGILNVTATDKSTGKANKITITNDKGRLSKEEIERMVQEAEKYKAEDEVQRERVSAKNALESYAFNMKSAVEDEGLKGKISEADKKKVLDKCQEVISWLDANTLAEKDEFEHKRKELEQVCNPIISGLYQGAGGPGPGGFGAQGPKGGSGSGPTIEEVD
UniProt P34931: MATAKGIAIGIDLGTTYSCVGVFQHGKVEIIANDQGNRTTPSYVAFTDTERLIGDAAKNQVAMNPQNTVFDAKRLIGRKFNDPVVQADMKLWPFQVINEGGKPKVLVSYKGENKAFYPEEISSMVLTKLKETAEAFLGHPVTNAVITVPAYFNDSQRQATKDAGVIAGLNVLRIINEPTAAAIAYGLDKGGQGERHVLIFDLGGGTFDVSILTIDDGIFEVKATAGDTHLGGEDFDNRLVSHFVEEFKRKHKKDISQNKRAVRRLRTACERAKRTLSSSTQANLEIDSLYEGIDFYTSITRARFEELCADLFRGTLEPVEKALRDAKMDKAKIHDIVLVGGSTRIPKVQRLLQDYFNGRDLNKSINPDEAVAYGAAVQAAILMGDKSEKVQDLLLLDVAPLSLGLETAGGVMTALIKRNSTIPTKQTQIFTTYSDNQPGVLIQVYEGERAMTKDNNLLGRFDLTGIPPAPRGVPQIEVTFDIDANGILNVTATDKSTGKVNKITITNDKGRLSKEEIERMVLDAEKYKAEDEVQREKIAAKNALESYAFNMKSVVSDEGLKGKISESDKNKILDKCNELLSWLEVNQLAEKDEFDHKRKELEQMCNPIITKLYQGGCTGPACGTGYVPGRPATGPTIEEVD
UniProt P11142: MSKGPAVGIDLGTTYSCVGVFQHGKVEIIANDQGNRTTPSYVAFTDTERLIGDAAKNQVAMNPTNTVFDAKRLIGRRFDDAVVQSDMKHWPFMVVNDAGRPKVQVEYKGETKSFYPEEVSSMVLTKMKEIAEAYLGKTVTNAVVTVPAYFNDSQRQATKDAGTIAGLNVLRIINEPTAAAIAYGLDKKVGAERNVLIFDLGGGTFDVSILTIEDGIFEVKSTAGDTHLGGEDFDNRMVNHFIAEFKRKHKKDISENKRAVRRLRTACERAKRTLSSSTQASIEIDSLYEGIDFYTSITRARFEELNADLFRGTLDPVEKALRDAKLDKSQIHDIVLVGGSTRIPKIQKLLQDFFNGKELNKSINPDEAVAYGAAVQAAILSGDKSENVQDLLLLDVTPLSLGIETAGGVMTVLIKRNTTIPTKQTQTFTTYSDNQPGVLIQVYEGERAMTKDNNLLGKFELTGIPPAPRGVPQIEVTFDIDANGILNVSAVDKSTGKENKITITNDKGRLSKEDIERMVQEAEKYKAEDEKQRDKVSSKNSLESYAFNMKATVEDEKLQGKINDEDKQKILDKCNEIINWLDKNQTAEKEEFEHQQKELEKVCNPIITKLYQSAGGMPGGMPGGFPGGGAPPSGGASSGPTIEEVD
UniProt P10591: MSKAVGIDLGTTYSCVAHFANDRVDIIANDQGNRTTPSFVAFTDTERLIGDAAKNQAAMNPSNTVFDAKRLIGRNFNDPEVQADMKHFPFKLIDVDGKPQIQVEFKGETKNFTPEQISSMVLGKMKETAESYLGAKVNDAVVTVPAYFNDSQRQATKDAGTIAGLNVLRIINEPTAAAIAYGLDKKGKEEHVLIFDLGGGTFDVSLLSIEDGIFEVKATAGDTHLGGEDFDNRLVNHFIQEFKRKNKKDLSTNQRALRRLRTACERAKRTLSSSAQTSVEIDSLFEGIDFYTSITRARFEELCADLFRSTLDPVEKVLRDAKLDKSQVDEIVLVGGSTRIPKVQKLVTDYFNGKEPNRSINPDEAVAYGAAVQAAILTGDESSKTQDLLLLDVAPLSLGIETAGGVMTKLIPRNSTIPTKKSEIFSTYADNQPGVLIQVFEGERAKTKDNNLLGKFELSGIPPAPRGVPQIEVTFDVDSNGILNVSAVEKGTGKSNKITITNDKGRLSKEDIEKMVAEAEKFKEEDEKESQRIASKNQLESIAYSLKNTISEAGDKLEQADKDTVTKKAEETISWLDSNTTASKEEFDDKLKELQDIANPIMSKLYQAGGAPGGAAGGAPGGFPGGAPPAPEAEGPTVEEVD
UniProt P09435: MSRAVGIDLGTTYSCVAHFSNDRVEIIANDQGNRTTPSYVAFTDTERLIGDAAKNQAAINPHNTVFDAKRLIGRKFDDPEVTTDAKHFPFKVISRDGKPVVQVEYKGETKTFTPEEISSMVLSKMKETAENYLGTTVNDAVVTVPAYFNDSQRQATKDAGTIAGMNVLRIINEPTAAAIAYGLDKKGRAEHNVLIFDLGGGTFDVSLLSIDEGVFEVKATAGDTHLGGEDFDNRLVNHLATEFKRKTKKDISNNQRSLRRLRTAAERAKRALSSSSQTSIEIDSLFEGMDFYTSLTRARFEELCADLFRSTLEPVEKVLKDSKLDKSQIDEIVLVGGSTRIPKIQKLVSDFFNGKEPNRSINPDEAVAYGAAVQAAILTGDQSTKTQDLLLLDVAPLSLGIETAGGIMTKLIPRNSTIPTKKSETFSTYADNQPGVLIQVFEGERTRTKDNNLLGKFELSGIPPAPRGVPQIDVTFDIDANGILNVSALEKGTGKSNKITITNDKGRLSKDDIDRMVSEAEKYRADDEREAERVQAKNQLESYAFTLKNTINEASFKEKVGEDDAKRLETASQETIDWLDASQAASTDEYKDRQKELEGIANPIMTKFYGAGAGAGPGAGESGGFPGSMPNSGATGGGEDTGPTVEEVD
UniProt P22202: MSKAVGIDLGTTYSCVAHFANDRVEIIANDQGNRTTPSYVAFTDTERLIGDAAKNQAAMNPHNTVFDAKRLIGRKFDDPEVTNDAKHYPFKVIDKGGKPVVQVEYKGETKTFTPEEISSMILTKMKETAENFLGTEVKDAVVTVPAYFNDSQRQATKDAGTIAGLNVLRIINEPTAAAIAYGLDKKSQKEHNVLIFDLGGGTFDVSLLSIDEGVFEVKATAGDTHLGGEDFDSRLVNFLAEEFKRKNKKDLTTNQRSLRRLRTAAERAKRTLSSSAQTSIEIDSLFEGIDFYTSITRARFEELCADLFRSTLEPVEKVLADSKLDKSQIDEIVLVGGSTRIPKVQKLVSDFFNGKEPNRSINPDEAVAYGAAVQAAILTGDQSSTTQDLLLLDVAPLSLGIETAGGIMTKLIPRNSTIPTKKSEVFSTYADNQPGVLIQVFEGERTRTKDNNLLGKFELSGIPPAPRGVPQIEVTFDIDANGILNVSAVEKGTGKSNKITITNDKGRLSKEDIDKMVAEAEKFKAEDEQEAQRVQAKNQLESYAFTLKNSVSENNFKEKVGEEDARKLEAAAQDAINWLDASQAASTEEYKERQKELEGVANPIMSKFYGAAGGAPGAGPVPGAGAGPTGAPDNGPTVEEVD
UniProt P25491: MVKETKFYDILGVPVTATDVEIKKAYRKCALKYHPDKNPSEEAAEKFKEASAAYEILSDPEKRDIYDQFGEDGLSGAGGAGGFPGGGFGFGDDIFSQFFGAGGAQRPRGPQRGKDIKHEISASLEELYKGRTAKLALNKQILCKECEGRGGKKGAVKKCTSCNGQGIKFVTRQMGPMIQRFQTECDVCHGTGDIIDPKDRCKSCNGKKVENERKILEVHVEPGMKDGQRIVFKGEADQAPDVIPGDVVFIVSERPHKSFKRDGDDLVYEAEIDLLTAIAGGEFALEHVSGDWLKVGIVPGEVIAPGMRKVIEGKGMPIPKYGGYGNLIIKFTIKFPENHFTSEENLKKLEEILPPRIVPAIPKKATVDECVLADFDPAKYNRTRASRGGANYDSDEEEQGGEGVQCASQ

These substances were tested against T1, HA-APE2 (UniProt Q9UBZ4) (assay: co-IP; lysate (M-PER) of transfected HEK293 cells, 48 h after transfection; HA-APE2 held on anti-HA magnetic beads, 30 °C for 30 min; partners found by Western blot).
T1 sequence: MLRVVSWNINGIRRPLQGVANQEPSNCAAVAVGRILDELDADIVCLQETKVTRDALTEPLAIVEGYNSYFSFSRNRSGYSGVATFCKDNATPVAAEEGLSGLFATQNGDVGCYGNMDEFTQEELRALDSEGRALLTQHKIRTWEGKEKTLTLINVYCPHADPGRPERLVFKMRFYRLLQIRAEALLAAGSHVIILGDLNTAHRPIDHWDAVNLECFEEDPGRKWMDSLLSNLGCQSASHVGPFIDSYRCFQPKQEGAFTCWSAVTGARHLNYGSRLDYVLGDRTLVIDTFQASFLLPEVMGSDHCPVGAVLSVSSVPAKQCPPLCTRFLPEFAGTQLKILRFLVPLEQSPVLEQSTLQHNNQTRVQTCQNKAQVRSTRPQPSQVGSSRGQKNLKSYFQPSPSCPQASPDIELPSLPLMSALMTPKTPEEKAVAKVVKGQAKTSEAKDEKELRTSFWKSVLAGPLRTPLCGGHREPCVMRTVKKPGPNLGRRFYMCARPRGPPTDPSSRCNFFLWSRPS
With DNAJA1 (from UniProt P31689 1-397) the binding was “no binding”. In the case of HSPA1A-V5 (from UniProt P0DMV8 1-641), the binding is reported as “binds”. For HSPA1L-V5 (from UniProt P34931 1-641), the binding was “binds”. HSPA8-V5 (from UniProt P11142 1-646) was tested, and the binding was “binds”.

What follows are substances tested against T2, HA-tagged Apn2 (budding yeast) (UniProt P38207) (assay: co-IP; yeast lysate (50 mM Na-phosphate pH 8.0, 300 mM NaCl, 0.01% Tween-20); HA-tagged Apn2 held on anti-HA magnetic beads, 30 °C for 30 min; partners found by Western blot).
T2 sequence: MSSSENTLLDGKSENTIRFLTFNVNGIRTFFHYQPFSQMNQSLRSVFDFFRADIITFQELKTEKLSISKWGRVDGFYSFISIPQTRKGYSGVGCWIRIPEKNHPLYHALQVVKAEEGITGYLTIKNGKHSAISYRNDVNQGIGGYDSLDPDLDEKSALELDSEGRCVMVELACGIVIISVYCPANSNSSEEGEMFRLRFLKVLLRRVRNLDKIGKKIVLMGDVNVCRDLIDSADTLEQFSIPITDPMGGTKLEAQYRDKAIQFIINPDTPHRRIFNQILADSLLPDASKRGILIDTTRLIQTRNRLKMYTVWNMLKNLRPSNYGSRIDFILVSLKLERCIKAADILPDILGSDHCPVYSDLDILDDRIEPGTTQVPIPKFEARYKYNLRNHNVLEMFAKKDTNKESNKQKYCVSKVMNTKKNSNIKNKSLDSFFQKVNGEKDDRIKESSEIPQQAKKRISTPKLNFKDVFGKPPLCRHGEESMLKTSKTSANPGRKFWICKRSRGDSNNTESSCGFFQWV
Flag-Ssa1 (from UniProt P10591 1-642) was tested, and the binding was “binds”. For Flag-Ssa3 (from UniProt P09435 1-649), the binding was “binds”. With Flag-Ssa4 (from UniProt P22202 1-642) the binding was “binds”. For Hsp82 (from UniProt P02829 1-709), the binding was “binds”. In the case of Hsp82-His (from UniProt P02829 1-709), the binding is reported as “binds”. With Ssa1 (from UniProt P10591 1-642) the binding was “binds”. Ydj1 (from UniProt P25491 1-409) was tested, and the binding was “binds”.
